This is an account of results in the supplement of paper PMC10126150.

Sequences with one replicate were seen in a single cluster, so their values are uncertain.

The series deals with ATP. Briefly: switch fluorescence ratio, 500 uM ATP over buffer (Cy3 cluster intensity, sum of 5 cycles each) (fold (ratio)); higher = stronger signal-on switching upon ATP binding; sequences stand for … in TCGTCGGCAGCGTCAGATGTGTATAAGAGACAGTTTTTTTTTTTTTTTTTTTTTTTTT…TC. The note with it: aptamer strand: ATP DNA aptamer (quencher-CACCTGGGGGAGTATTGCGGAGGAAGG + anchor), 100 nM annealed; ATP concentration: 500 uM; one replicate. The procedure, abridged:
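Between each of five buffer/ATP cycles, the flow-cell was stripped with NaOH and re-annealed. Each cycle imaged Cy3-labelled switching-strand clusters, annealed to 100 nM quencher-labelled ATP aptamer on a modified Illumina MiSeq flow-cell, first in selection buffer and then after 15 min with 500 uM ATP at 22 °C. The fluorescence ratio is summed target-cycle over summed buffer-cycle Cy3 intensity per cluster, averaged per switch-domain sequence, with clusters outside 100-1000 RFU excluded.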
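Note: ATP exposure 15 min at 22 °C before imaging.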

Consider TTTCGCATTA, for which the switch fluorescence ratio amounted to 1.69.
CAATTCCGTC: the switch fluorescence ratio turned out to be 0.978.
Regarding TAGCGTTCCT, the switch fluorescence ratio was 1.23.
Take TCGACATGTA: the switch fluorescence ratio came out at 1.05.
AAGTATAAAG: the switch fluorescence ratio was 0.953.
Regarding CGTAGAAAAA, the switch fluorescence ratio came out at 1.01.
Regarding CGATAATTTT, the switch fluorescence ratio was determined as 0.962.
In the case of ACTAATGTAA, the switch fluorescence ratio is 0.99.
Consider TGCAGTGGC, for which the switch fluorescence ratio is 1.61.
With ACTATGTGTT, the switch fluorescence ratio worked out at 1.01.
As for TCTCGGGGGA, the switch fluorescence ratio is 1.11.
The result for TTAACGTCGT reads 0.983.
Turning to GTTAAGTGTG, the switch fluorescence ratio came out at 1.02.
As to TTTGTGGTG, the switch fluorescence ratio was 1.03.
As for CTTGAAGATT, the switch fluorescence ratio was 0.949.
CCTCATCGAT: the switch fluorescence ratio is 3.65.
On to AGGCCGGATC, for which the switch fluorescence ratio came out at 1.03.
As for TTGCTACCGG, the switch fluorescence ratio amounted to 1.04.
With CCCACGTTCG, the switch fluorescence ratio amounted to 1.
AGTTAGTGAT: the switch fluorescence ratio was 0.981.
For the sequence CCAGCAGGA, the switch fluorescence ratio amounted to 1.23.
Consider ATAGAACTGG, for which the switch fluorescence ratio worked out at 0.928.
On to AGTCCATTGA, for which the switch fluorescence ratio amounted to 1.02.
As to AGGGGCAAAA, the switch fluorescence ratio turned out to be 1.01.
Take GTGGAAGGG: the switch fluorescence ratio is 0.937.
ATCCCTTACC: the switch fluorescence ratio was determined as 1.21.
The result for AGATGGGCAA reads 0.967.
Take AGTGAGCGTT: the switch fluorescence ratio was 1.04.
As for CTGAGTCCTG, the switch fluorescence ratio stood at 1.07.
TGCTAGTGGG: the switch fluorescence ratio was 0.959.
For AGAGACTAAC, the switch fluorescence ratio came to 1.02.
As to TAACCTTTTT, the switch fluorescence ratio was found to be 0.985.
Turning to CGTAGCCGAT, the switch fluorescence ratio is 0.995.
As to TTTACGTGGG, the switch fluorescence ratio stood at 1.01.
Next, GAAAGCCCGC: 1.03; TAAGGATTAA: 0.982; GATCTAAGGA: 0.967.
The result for TATGGGTGTA reads 0.997.
For the sequence TACAATGGAA, the switch fluorescence ratio stood at 1.01.
In the case of GACAGCAAGT, the switch fluorescence ratio came to 1.24.
Next, TTATGTAACA: 1.07.
Next, TTAAGACGAC: 1.28; TTTTCGAGCC: 1.03.
As to AGCGAGGGCT, the switch fluorescence ratio was 1.01.
Take ATCACGACTT: the switch fluorescence ratio was 0.994.
On to TGGTAACGCT, for which the switch fluorescence ratio is 1.05.
For the sequence GAAATTTCGA, the switch fluorescence ratio came out at 0.959.
As to TCATTATTTC, the switch fluorescence ratio was 0.953.
As for TTACGCGGAT, the switch fluorescence ratio was determined as 0.993.
Next, CTCCAGTCTC: 1.31; GTGTACGCAG: 0.991.
Consider AACGAGACGT, for which the switch fluorescence ratio is 1.1.
GGAGTAGAAG: the switch fluorescence ratio is 1.
For the sequence ATTCCAGGCA, the switch fluorescence ratio worked out at 1.03.
Next, ACTGATTTCT: 1.05; AGGAATAGGC: 1.04; GGCCTCTTTC: 1.02.
Consider TGTGACTCGT, for which the switch fluorescence ratio was 0.959.
The result for CCACGCACGG reads 1.87.
With GTGCTATATG, the switch fluorescence ratio stood at 0.982.
ACACGGAAAG: the switch fluorescence ratio turned out to be 1.06.
As for CCTCAGACAT, the switch fluorescence ratio is 2.91.
For CCAAGCTTAT, the switch fluorescence ratio was found to be 1.8.
Next, AACATCGGA: 0.972.
Take ACATGTGAAA: the switch fluorescence ratio stood at 1.01.
In the case of TGAGACTGAA, the switch fluorescence ratio was 0.982.
For the sequence GTATAACACC, the switch fluorescence ratio was 1.01.
Consider GTTGAATGCT, for which the switch fluorescence ratio amounted to 0.932.
As for CATTTTCTA, the switch fluorescence ratio was found to be 0.999.
For the sequence CCGGAGTTCA, the switch fluorescence ratio stood at 2.46.
Regarding GGGCTACGCT, the switch fluorescence ratio was found to be 0.99.
Turning to CGTAACTTGC, the switch fluorescence ratio was determined as 1.2.
In the case of ATCTAAGCTT, the switch fluorescence ratio is 1.06.
Consider AAGGTACTCG, for which the switch fluorescence ratio came to 1.
In the case of ACGTAACTC, the switch fluorescence ratio was found to be 1.35.
As to AGGAGCTTGG, the switch fluorescence ratio came to 1.01.
Turning to GGGGCGTCGG, the switch fluorescence ratio worked out at 0.971.
Turning to GGGACATGGC, the switch fluorescence ratio turned out to be 1.02.
